Hit rate of the full screen: of about 150,000 compounds, about 540 (0.36%) showed an effect of 50% or more. The list shows a part of the results.
What follows are compounds tested on Plasmodium falciparum (assay: Primary screen in NF54 nanoGlo assay, in single point, at 2uM, 72h; a lower Z score goes with more inhibition). Conditions: timepoint 72 hour.
Type: functional, Erythrocyte
`O=C([C@@H]1CCc2ccccc21)N1CCC(c2nccn2CC2CC2)CC1` was tested, and the “% Inhibition” value was 1% and the Z score was -0.18.
With `O=C(N[C@H]1[C@H](O)[C@H](O)C[C@@H]1c1ccncc1)c1ccccn1` the “% Inhibition” value was 9% and the Z score was -1.1.
In the case of `CCn1cc(CN[C@@H](C)c2cnc(N(C)C3CCCCC3)nc2C)cn1`, the “% Inhibition” value is reported as -4% and the Z score is reported as 0.57.
For `O=C(c1cc(Cn2cnc3ccccc32)on1)N1C[C@H]2CCC[C@@]2(CO)C1`, the “% Inhibition” value was -2% and the Z score was 0.26.
`O=C(CC(F)(F)F)N1CCC[C@H](Oc2ccncn2)C1` was tested, and the “% Inhibition” value was 2% and the Z score was -0.25.
For `C[C@@H](CN(C)c1ncc(C(F)(F)F)s1)C(=O)O`, the “% Inhibition” value was -10% and the Z score was 1.23.
In the case of `CCc1ncc(CN2CCC[C@@]2(C)C(=O)O)cn1`, the “% Inhibition” value is reported as -11% and the Z score is reported as 1.37.
For `CC[C@H](NCC#N)c1ccccc1OC(F)F`, the “% Inhibition” value was -8% and the Z score was 1.14.
With `Cn1nccc1[C@@H]1CCCN1Cc1nn(C)c(=O)[nH]1` the “% Inhibition” value was -18% and the Z score was 2.21.
For `O=C(NC1(C(=O)O)CCCCC1)C1=NN(c2ccccc2)C(=O)CC1`, the “% Inhibition” value was -16% and the Z score was 1.77.
`COCCn1ccn2nc(-c3ccc(F)cc3)c(CO)c2c1=O` was tested, and the “% Inhibition” value was -16% and the Z score was 1.81.
`CCCN(C)C(=O)c1cc(-c2ccc(C3CCCCC3)cc2)on1` was tested, and the “% Inhibition” value was 3% and the Z score was -0.31.
For `CC(=Cc1ccc(OCC(=O)O)c(Br)c1)c1cnccn1`, the “% Inhibition” value was 8% and the Z score was -1.
For `COCCn1cc(CNC[C@H](C)C#N)cn1`, the “% Inhibition” value was 41% and the Z score was -3.48.
For `CC1=C(c2ccc(Cl)cc2)S(=O)(=O)N=C1N1CCCCC1`, the “% Inhibition” value was -7% and the Z score was 1.02.
In the case of `COCc1nn(C)c2c1CN(C(=O)c1ccc3ccccc3n1)CC2`, the “% Inhibition” value is reported as -11% and the Z score is reported as 1.26.
In the case of `CN1CCN(CC(=O)NCCC2CCCCC2)S1(=O)=O`, the “% Inhibition” value is reported as -4% and the Z score is reported as 0.45.
With `Cn1nc(C(=O)N(Cc2cccs2)C2CCCC2)c2c1CCOC2` the “% Inhibition” value was -9% and the Z score was 1.14.
`Cc1cc(N2CCN(C(=O)c3ccco3)CC2)nc2nnc(C)n12` was tested, and the “% Inhibition” value was -17% and the Z score was 2.19.
With `Cc1c(C(=O)NCc2ccc(OC(C)C)cc2)cccc1-n1nnc2cccnc21` the “% Inhibition” value was -13% and the Z score was 2.49.
`CN(Cc1cc(C2CC2)[nH]n1)Cc1ccc(-c2cc[nH]n2)s1` was tested, and the “% Inhibition” value was -3% and the Z score was 0.53.
In the case of `Cn1cc(CN(Cc2ccccc2C(F)(F)F)C2CC2)cn1`, the “% Inhibition” value is reported as -3% and the Z score is reported as 0.65.
With `CCn1c(NCc2cncn2C)nc2ccc(Br)cc21` the “% Inhibition” value was -1% and the Z score was 0.12.
For `CC(C)c1nc(CCNC(=O)CC2CCCCC2C)n(C)n1` (centres undefined), the “% Inhibition” value was -7% and the Z score was 1.16.
`O=C(NCCc1nc(-c2cccs2)c[nH]1)c1ccccc1` was tested, and the “% Inhibition” value was 1% and the Z score was -0.1.
`CCC[C@H](NC(=O)N1CCC2(CC1)C(=O)N(C)C(=O)N2C)c1nccn1C` was tested, and the “% Inhibition” value was -1% and the Z score was 0.08.
In the case of `c1cnc2nc(-c3ccc4c(c3)OCO4)oc2c1`, the “% Inhibition” value is reported as -5% and the Z score is reported as 0.71.
In the case of `O=C(c1ccsc1)N1CCCn2cc(-c3ccc4c(c3)OCO4)nc21`, the “% Inhibition” value is reported as -6% and the Z score is reported as 1.
`CCn1c(=O)n([C@@H]2CCN(C(=O)Cc3ccc(OC)cc3)C2)c2ncccc21` was tested, and the “% Inhibition” value was 5% and the Z score was -0.88.
`Cc1cc(C)c2ccc(C(=O)N3C[C@H]4CC[C@@H](C3)N(CC3CC3)C4)cc2n1` was tested, and the “% Inhibition” value was -13% and the Z score was 2.4.
With `Cc1cccc2[nH]cc(CCC(=O)NC[C@H]3CCN(C)C(=O)C3)c12` the “% Inhibition” value was 2% and the Z score was -0.3.
With `COc1cccc(C[C@H](NC(=O)C(=O)Nc2cc(C)nn2C)C2CC2)c1` the “% Inhibition” value was -2% and the Z score was 0.45.
`Cc1sc(Cn2ccc(=O)[nH]c2=O)nc1C(F)(F)F` was tested, and the “% Inhibition” value was 0% and the Z score was 0.04.
For `O=C(Cc1csc(-c2ccoc2)n1)NC[C@H](O)C1CCCCC1`, the “% Inhibition” value was -2% and the Z score was 0.22.
`O=C(c1cccc(-n2cccn2)n1)N(CC1CC1)c1cccnc1` was tested, and the “% Inhibition” value was 5% and the Z score was -1.03.
For `CC(C)[C@H](CNC(=O)CCCc1ccc2c(c1)CC(=O)N2)Cc1ccccc1`, the “% Inhibition” value was -8% and the Z score was 1.01.
For `CCn1cnnc1CNC(=O)[C@@]1(C)CC1(Cl)Cl`, the “% Inhibition” value was -2% and the Z score was 0.19.
In the case of `Cc1cccc(-c2ncc(C(=O)N(C)C3CCCCC3)c(N3CCN(c4ccccc4F)CC3)n2)c1`, the “% Inhibition” value is reported as -13% and the Z score is reported as 2.18.
With `COC[C@@H]1CN(c2cnccn2)C[C@H]1C(=O)NCc1ccncc1` the “% Inhibition” value was -12% and the Z score was 1.75.
`O=C(Nc1c(F)cc(Cl)cc1F)C(=O)N1CCOC[C@H]1C1CC1` was tested, and the “% Inhibition” value was 7% and the Z score was -0.71.
In the case of `O=S(=O)(NC1(c2ccc3c(c2)OCCO3)CC1)c1ccoc1`, the “% Inhibition” value is reported as -19% and the Z score is reported as 1.89.
For `CCCOc1ccc(-c2nc(C#N)c(N3CCCCCC3)o2)cc1`, the “% Inhibition” value was -5% and the Z score was 0.98.
`COc1ccncc1CNC(=O)c1cc(C)ccc1-n1ccnc1` was tested, and the “% Inhibition” value was -45% and the Z score was 5.23.
`CCn1cnnc1-c1nn(C)c2c1CN(C(=O)c1n[nH]c(=O)c3ccccc13)CC2` was tested, and the “% Inhibition” value was -5% and the Z score was 0.72.
With `Cc1nc([C@H](C)NCc2c(Cl)cncc2Cl)n[nH]1` the “% Inhibition” value was 5% and the Z score was -0.64.
For `Cc1cc(CS(=O)(=O)NC2CC(O)C23CCC3)no1` (centres undefined), the “% Inhibition” value was -9% and the Z score was 0.98.
With `CN(C(=O)C1CCCCC1)C1CCCC1` the “% Inhibition” value was 0% and the Z score was 0.05.
In the case of `CCCc1cc(C(=O)N2CC[C@H](c3sccc3C)[C@@H](O)C2)no1`, the “% Inhibition” value is reported as -12% and the Z score is reported as 1.07.
`CCc1cc([C@@H]2CCCN2C(=O)Nc2ccc(Br)cc2F)on1` was tested, and the “% Inhibition” value was -8% and the Z score was 1.07.
`Cc1cccc(OCc2cncs2)n1` was tested, and the “% Inhibition” value was -1% and the Z score was 0.17.
With `CCC(CC)[C@H](NC(=O)c1nnn(C2CCNCC2)c1C)c1ccccc1` the “% Inhibition” value was 12% and the Z score was -1.44.
In the case of `CCCOC1CCCN(C(=O)[C@@H](N)CC(C)C)CC1` (some centres undefined), the “% Inhibition” value is reported as -6% and the Z score is reported as 0.88.
In the case of `CC1(C)C[C@H](O)c2c(OCc3nccs3)cccc2O1`, the “% Inhibition” value is reported as -8% and the Z score is reported as 0.98.
With `O=C(O)C1CCC(CNC(=O)[C@H](Cc2c[nH]c3ccccc23)n2c(=O)[nH]c3ccccc3c2=O)CC1` (some centres undefined) the “% Inhibition” value was 3% and the Z score was -0.51.
In the case of `CCO[C@@H](C)C(=O)N(C)CCCn1cccn1`, the “% Inhibition” value is reported as -4% and the Z score is reported as 0.82.
In the case of `CN(Cc1cccs1)C(=O)[C@@H]1CCCN1C(=O)c1cccs1`, the “% Inhibition” value is reported as -7% and the Z score is reported as 0.89.
With `O=C(NCc1ccnc(C(F)(F)F)c1)C1(C2CCC2)CCC1` the “% Inhibition” value was -10% and the Z score was 1.67.
In the case of `Cc1nn2c(N3CCC(Cc4ccccc4)CC3)cc(C(C)C)nc2c1-c1ccccc1`, the “% Inhibition” value is reported as -7% and the Z score is reported as 1.3.
`c1cc2ncc(-c3nc([C@@H]4CCCCO4)no3)cc2s1` was tested, and the “% Inhibition” value was -6% and the Z score was 1.09.
For `CN(C)S(=O)(=O)c1ccc2c(c1)nnn2CCCC(=O)Nc1ccccc1Cl`, the “% Inhibition” value was -13% and the Z score was 1.88.
In the case of `COc1ccc(NC(=O)C2CCN(c3nnc(-c4ccc(C)cc4)o3)CC2)c(OC)c1`, the “% Inhibition” value is reported as 7% and the Z score is reported as -1.05.
For `CC(C)c1nnc([C@H](C)NC(=O)c2ccc(=O)n(C)n2)o1`, the “% Inhibition” value was -5% and the Z score was 0.71.
In the case of `Cc1n[nH]c(C)c1CNCc1cnc(C(C)C)nc1`, the “% Inhibition” value is reported as -2% and the Z score is reported as 0.32.
With `C[C@@H]1CN(C[C@@H]2CN(C(=O)c3ccsc3)C[C@@H]2CO)C[C@H](C)O1` the “% Inhibition” value was -14% and the Z score was 2.47.
With `O=C1c2ccccc2C(=O)N1CCN1CCOC2CCCCC21` (centres undefined) the “% Inhibition” value was -6% and the Z score was 0.96.
In the case of `Cc1nn(C)c(C)c1Nc1nc2c(s1)c(C)nn2C`, the “% Inhibition” value is reported as -10% and the Z score is reported as 1.28.
For `CC[C@H]1CCCCN1c1ccc2nnnn2n1`, the “% Inhibition” value was 35% and the Z score was -4.72.
With `CC(C)C[C@H](O)c1nc(C(C)(C)C)nn1CCO` the “% Inhibition” value was 2% and the Z score was -0.31.
For `C#CCN(C)S(=O)(=O)c1cc(OC)ccc1Br`, the “% Inhibition” value was -6% and the Z score was 0.82.
With `CCc1nc(CN[C@@H](C)c2ccc(N3CCCC3=O)cc2)cs1` the “% Inhibition” value was 13% and the Z score was -1.79.
With `O=C([C@@H]1CCCO1)N1CCN(c2ccc(-n3cncn3)nn2)CC1` the “% Inhibition” value was 7% and the Z score was -0.9.
With `CCC=C(C)C(=O)N(C)Cc1ccco1` the “% Inhibition” value was -10% and the Z score was 1.95.
`CCN1CCN(C2CCN(c3ncc(F)c(OC)n3)CC2)CC1` was tested, and the “% Inhibition” value was 51% and the Z score was -7.32.
For `O=C(Cc1ccsc1)Nc1cc(C2CCCCC2)[nH]n1`, the “% Inhibition” value was -4% and the Z score was 0.57.
With `COCn1nccc1S(=O)(=O)NC(C)(C)C(=O)OC` the “% Inhibition” value was 0% and the Z score was 0.04.
`CCOc1cccc(CCc2nc(C3CCNCC3)no2)c1` was tested, and the “% Inhibition” value was -1% and the Z score was 0.14.
`O=S(=O)(CC1CCCO1)N1CCOC(c2nccs2)C1` (centres undefined) was tested, and the “% Inhibition” value was -10% and the Z score was 1.11.
With `Clc1cc(Cn2nnc(C3CC3)n2)cc2c1OCCO2` the “% Inhibition” value was -8% and the Z score was 1.16.
With `COc1ccc(-n2nc(N3CCN(C(=O)c4cccc(OC)c4)CC3)ccc2=O)cc1` the “% Inhibition” value was 9% and the Z score was -1.1.
`CCc1cc(NC(=O)c2ccco2)nc(C)n1` was tested, and the “% Inhibition” value was -2% and the Z score was 0.24.
In the case of `CCN1CC(=O)N[C@H]2CN(C(=O)c3ccc(N(C)C)nc3)CC[C@@H]2OCc2cccc(c2)Oc2cccc(c2)CC1=O`, the “% Inhibition” value is reported as 12% and the Z score is reported as -1.64.
`C[C@@H](CNc1nnc(C(C)(C)C)o1)Oc1cccnc1` was tested, and the “% Inhibition” value was -14% and the Z score was 1.8.
With `COc1ccccc1C1(CNC(=O)N2CCC[C@H]2c2cnn(C)c2)CCC1` the “% Inhibition” value was 2% and the Z score was -0.26.
For `CC1(CNC(C(N)=O)c2cccc(Br)c2)CCCO1` (centres undefined), the “% Inhibition” value was -13% and the Z score was 1.5.
`COc1ccccc1C(C)CC(=O)C(C#N)C(=O)NC1CCCC1` (centres undefined) was tested, and the “% Inhibition” value was -6% and the Z score was 0.58.
In the case of `CO[C@@H]1C[C@@H](c2ncn[nH]2)N(Cc2ccc(-n3ccnc3)cc2C)C1`, the “% Inhibition” value is reported as 4% and the Z score is reported as -0.56.
For `Cc1ccc(O)c(NC(=O)c2cnn3c2C[C@@H](C)CC3)n1`, the “% Inhibition” value was -16% and the Z score was 2.42.

— ChEMBL document CHEMBL4888484, “Replenishing the malaria drug discovery pipeline: Screening and hit evaluation of the MMV Hit Generation Library 1 (HGL1) against asexual blood stage Plasmodium falciparum ,using a nano luciferase reporter read-out” (2022)
